Results reported in the supplement of paper PMC6531468.
This is one part of the list. Read counts after selection give these values, which scatter widely. Each score is taken over the longer molecules that contain the sequence shown.

Tested on: IMP3 KH3-4
Assay: 6-mer SELEX enrichment z-score vs GST control; IMP3 is the RNA-binding protein IGF2BP3; higher = more enriched by binding
Conditions: construct: KH3-4 (377-579); SELEX round: R4
Experimental: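 SELEX-seq with GST-tagged IMP3 KH3-4 (Pro377-Lys579) and an N40 RNA pool, round 4. 6-mer z-score of sequence-tag enrichment normalised to the corresponding GST SELEX round; RNA k-mers written as DNA (T for U).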

Chain of IMP3 KH3-4 (chain, as listed by the source): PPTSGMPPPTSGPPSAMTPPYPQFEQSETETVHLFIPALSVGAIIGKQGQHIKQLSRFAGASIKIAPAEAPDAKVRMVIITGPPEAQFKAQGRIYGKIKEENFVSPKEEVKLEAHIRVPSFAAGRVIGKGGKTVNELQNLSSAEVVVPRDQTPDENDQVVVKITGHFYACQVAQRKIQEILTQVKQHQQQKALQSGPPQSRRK

Row | Sequence | 6-mer SELEX enrichment z-score
1 | CCATAA | 0.404
2 | TCCTCC | -0.349
3 | GAAGGG | 0.874
4 | CACTGT | 0.225
5 | TGCCCG | -1.56
6 | TACCAC | -0.949
7 | CTTATT | 1.2
8 | TCCGTT | 0.041
9 | GAAAAA | 0.948
10 | TCCTTC | 0.287
11 | AGACAT | 0.564
12 | CGGATC | -0.167
13 | GTGCCG | -0.564
14 | TTTCTC | 0.442
15 | TTGAAT | 1.13
16 | ACGGGG | 1.26
17 | TCACTC | -0.177
18 | TATATG | 1.86
19 | CCTTTA | 0.526
20 | CTGACT | -0.356

Row | Sequence | 6-mer SELEX enrichment z-score
21 | GAACCG | -1.57
22 | GCTCCG | -0.3
23 | ACGTAT | -0.36
24 | TACTCA | -0.863
25 | ATTTAC | 1.72
26 | CCTGTG | -0.637
27 | ATAAAA | 2.9
28 | CATAGC | 0.024
29 | CAGCTA | -0.205
30 | CGGGGG | 0.85
31 | TCGCGA | -0.521
32 | TTAATA | 2.42
33 | TGTAGA | -0.288
34 | ACATCG | -0.549
35 | TTCGTG | -0.108
36 | ATCGAA | -1.23
37 | AGGATT | 1.12
38 | TACATG | 1.45
39 | GGACAG | 0.744
40 | GATATT | 1.31
